Data: US6573282B1 (priority 1995, dated 2003)

What was measured:
[1] = test system: tape stripping induced hyperalgesia
inflamed knee joint = conditions: naloxone alone

In the case of `CN(C)C(=O)C(CCN1CCC(O)(c2ccc(Cl)cc2)CC1)(c1ccccc1)c1ccccc1` [Ioperamide], the “Tape Stripping-Induced Inflammation % Maximal Efficacy” value ([1]; intrapaw) is reported as 80% and the “Tape Stripping-Induced Inflammation ED50” value ([1]; intrapaw) is reported as 71 μg i. paw.
With `CN(C)C(=O)C(CCN1CCC(O)(c2ccc(Cl)cc2)CC1)(c1ccccc1)c1ccccc1` [loperamide, 4-(p-chlorophenyl)-4-hydroxy-N-N-dimethyl-α,α-diphenyl-1-piperidinebutyramide hydrochloride] the “antinociception (paw pressure threshold)” value ([1]; 100 μg i.paw, at 15 min, 30 min, and 1 hour following injection) was “Antinociception was observed”, the “ED50, antagonism of tape stripping induced hyperalgesia” value ([1]; measured at 15 min after intrapaw injection, 24 hours following tape stripping) was 72 µg and the “antinociception in the uninflamed paw” value (FCA-induced hyperalgesia; at up to 300 μg) was “No antinociception”. The “ED50, antihyperalgesia (paw pressure threshold)” value (FCA-induced hyperalgesia; i.pl. 24 hours after FCA, evaluated at 2 hours following injection) was 20 µg.
For `C=CCN1CC[C@]23c4c5ccc(O)c4O[C@H]2C(=O)CC[C@@]3(O)[C@H]1C5` [naloxone, naloxone HCl], the “effect upon compression-evoked change in BP” value (inflamed knee joint) was “without effect”.

Counter-ions that a name gives are not always drawn.
